Laboratory results: PubChem BioAssay AID504339 (National Center for Advancing Translational Sciences (NCATS), 2011)
Hit rate of the full screen: of about 390,000 compounds, about 17,000 (4.4%) were called active. Inconclusive means that the source gave no clear call. Such entries were picked first, then a sample of the others. Calls come from the whole dose curve; as a rule, active = well fitted inhibition curve with a large enough effect; inconclusive = small, poorly fitted or top-dose-only effect; inactive = no such curve, though single readings can be large or run the other way. Where the call is inconclusive, the potency comes from a doubtful curve fit.

biological target: Lysine-specific demethylase 4A (Homo sapiens) (UniProt O75164); assay: qHTS Assay for Inhibitors of JMJD2A-Tudor Domain; details: AlphaScreen JMJD2A-Tudor / H3K4me3 peptide binding; activity change, negative = inhibition: at 114 µM (top of the series); note: nearly all actives have a fitted effect of over 50% in size
UniProt O75164, sequence (O75164 whole entry, looked up, the tested form may be a part): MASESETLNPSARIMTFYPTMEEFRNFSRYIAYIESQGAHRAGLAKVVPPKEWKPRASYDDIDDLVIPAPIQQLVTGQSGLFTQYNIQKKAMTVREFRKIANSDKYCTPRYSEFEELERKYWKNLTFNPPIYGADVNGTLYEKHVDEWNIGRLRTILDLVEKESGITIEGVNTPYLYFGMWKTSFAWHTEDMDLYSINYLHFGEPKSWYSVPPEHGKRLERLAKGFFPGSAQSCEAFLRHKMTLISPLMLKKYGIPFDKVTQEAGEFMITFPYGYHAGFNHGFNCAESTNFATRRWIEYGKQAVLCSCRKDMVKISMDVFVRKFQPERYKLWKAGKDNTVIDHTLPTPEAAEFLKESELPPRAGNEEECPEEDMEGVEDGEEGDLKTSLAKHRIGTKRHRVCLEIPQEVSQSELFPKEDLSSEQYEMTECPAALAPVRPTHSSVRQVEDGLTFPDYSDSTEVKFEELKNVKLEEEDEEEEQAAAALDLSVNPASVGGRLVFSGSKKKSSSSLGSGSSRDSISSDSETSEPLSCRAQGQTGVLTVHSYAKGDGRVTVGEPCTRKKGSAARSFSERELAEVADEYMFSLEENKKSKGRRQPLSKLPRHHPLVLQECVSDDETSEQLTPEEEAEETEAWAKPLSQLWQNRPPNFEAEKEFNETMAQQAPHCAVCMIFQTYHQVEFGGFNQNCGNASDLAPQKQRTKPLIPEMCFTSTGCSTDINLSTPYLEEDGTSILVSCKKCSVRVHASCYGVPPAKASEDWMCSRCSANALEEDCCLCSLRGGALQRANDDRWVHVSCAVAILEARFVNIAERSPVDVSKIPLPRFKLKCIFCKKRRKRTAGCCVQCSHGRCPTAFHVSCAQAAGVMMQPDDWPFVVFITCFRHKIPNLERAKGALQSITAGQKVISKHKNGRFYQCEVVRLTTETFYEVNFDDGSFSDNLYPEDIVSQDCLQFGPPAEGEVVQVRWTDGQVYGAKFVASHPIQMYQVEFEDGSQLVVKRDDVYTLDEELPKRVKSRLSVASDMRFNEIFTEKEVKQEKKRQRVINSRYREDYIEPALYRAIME
% is set by controls: 0 for no effect and ±100 for the full control effect; potency is the fitted concentration of half-maximal effect; tags give direction and shape of the fitted curve.

Activity change, negative = inhibition, inactive:
CCc1cc(C(=O)N(CC(C)C)c2c(N)n(Cc3ccccc3)c(=O)[nH]c2=O)sc1C -12.2%, Cc1cccc(NC(=O)c2nc[nH]c2C(=O)N2CCC(C)CC2)c1 -23.2%, COc1ccc(CNC(=O)c2cnn(-c3ccc(C)cc3)c2C2CCN(C(=O)OC(C)(C)C)CC2)cc1 -33.3%, C/C(=N\NC(=O)c1cc(-c2ccco2)nc2ccccc12)c1cccnc1 -20.9%, O=C(Nc1ccccc1N1CCCC1)c1ccc(N2CCCC2=O)cc1 -23%, O=C(COC(=O)c1ccc(-n2cnnn2)cc1)c1ccc(Br)cc1 -12.3%, CCOC(=O)c1cccc(NC(=O)N2Cc3ccccc3Oc3ncccc32)c1 -15.4%, O=C1C(=O)N(C2CCN(C(=O)c3ccc(F)cc3)CC2)CCN1Cc1ccc(F)cc1 2.92%, CCOC(=O)C1CCN(C(=O)Cc2cccc3ccccc23)CC1 2.24%, CCN1C(C(=O)c2ccccc2)=C(OC(=O)c2ccc(Cl)cc2)c2ccccc2S1(=O)=O -26%

Potency, active:
S=c1nc(-c2ccccc2)[nH]n1-c1ccccc1 22.4 µM, CSC1=C(C#N)C(c2ccccc2Cl)C2=C(N1)c1ccccc1C2=O (stereo not given) 31.6 µM, Cn1cc(Cl)c(-c2n[nH]c(=S)n2-c2ccccc2)n1 6.31 µM, COc1cc(/C=C2/C(=O)NN(c3ccc(F)cc3)C2=O)cc(Cl)c1O 31.6 µM, Cc1ccc(CN2CCN(/N=C/C=C/c3ccccc3[N+](=O)[O-])CC2)cc1 14.1 µM, CCOc1ccc(-n2c(-c3ccc(OC)cc3)cc3c2CC(C)(C)CC3=O)cc1 15.8 µM, CC(=O)c1cccc(OCC(O)CNCC2COc3ccccc3O2)c1 (stereo not given) 0.794 µM, COc1cccc(CNC(C)C(=O)Nc2ccc3c(c2)OCCO3)c1 (stereo not given) 3.16 µM, COc1ccc(CCNC(=O)CSCc2ccc([N+](=O)[O-])cc2)cc1OC 20 µM, Cc1oc(-c2ccc(C(=O)N(C)Cc3ccccc3)cc2)nc1CN1CCc2ccccc21 28.2 µM, O=C1c2ccccc2C(=O)c2c(NCCCN(CCO)CCO)cccc21 39.8 µM

Potency, inconclusive:
CCOc1ccc(NC(=O)NC(CC)Cn2nnc3ccccc3c2=O)cc1 (stereo not given) 79.4 µM [inhibitor, partial curve], Cc1[nH]n(-c2ccccc2)c(=O)c1C(c1cccc([N+](=O)[O-])c1)c1c(C)[nH]n(-c2ccccc2)c1=O 56.2 µM [inhibitor, partial curve], COc1ccc(N2CCN(C3CCCN(S(=O)(=O)c4ccccc4)C3)CC2)cc1 (stereo not given) 56.2 µM [inhibitor, partial curve], CCCCNc1c(-c2ccc(OC)c(SC3CCCCC3)c2)nc2cnccn12 39.8 µM [inhibitor, full curve], COc1ccc(-c2nc(SCC(=O)NC3CCCC3)c(-c3ccccc3)[nH]2)cc1OC 39.8 µM [inhibitor, partial curve], O=C(NCc1ccco1)C1Cc2ccccc2CN1C(=O)c1ccco1 (stereo not given) 50.1 µM [inhibitor, partial curve], CC(OC(=O)c1ccc([N+](=O)[O-])o1)C(=O)Nc1nc(-c2ccc(F)c(F)c2)cs1 (stereo not given) 17.8 µM [inhibitor, full curve], CCN(CC)CCNc1ncnc2c1sc1nc(N3CCOCC3)c3c(c12)CCCC3 56.2 µM [inhibitor, partial curve], COc1cc(C2c3[nH]c4ccccc4c3CCN2Cc2cn(C)nc2C)ccc1F (stereo not given) 50.1 µM [inhibitor, partial curve, poor fit], Cc1ccccc1NS(=O)(=O)c1cc(C(=O)Nc2cccc([N+](=O)[O-])c2)ccc1C 63.1 µM [inhibitor, single point], C=Cc1ccc2c(c1)N(C)C(=C)S2 11.2 µM [inhibitor, full curve, poor fit], CC(C)(C)c1ccc(C(=O)NC(=S)Nc2nc3c(s2)CCCC3)cc1 39.8 µM [inhibitor, full curve, poor fit], O=C(CCNc1ccccc1)c1cccc([N+](=O)[O-])c1 50.1 µM [inhibitor, partial curve], CCN1C(=O)/C(=C/c2cc(C)n(C)c2C)SC1=Nc1ccc(OC)cc1 63.1 µM [inhibitor, partial curve, poor fit], COc1ccc(CNC(=O)C(C)n2nc(C)c3c(C)n(-c4ccc(C)cc4)nc3c2=O)cc1 (stereo not given) 15.8 µM [inhibitor, full curve], Cc1c(C(C)C)c(=O)n(-c2ccc(S(=O)(=O)NC3CC3)cc2)n1C 63.1 µM [inhibitor, partial curve, poor fit], O=C(CC1C(=O)OCC2CCCCN21)Nc1ccccc1C(F)(F)F (stereo not given) 28.2 µM [inhibitor, full curve, poor fit], CCOC(=O)C(=CNc1ccc(N2CCCCC2)c(S(=O)(=O)Nc2ccccc2OC)c1)C(=O)OCC 89.1 µM [inhibitor, partial curve], Cc1csc(NC(=O)c2cc(-c3ccco3)nc3ccccc23)n1 11.2 µM [inhibitor, full curve], CC(=O)/C(C#N)=C1\NC(=O)C(Cc2ccc(C)c(C)c2)S1 (stereo not given) 39.8 µM [inhibitor, full curve], O=C1NC(=O)/C(=C/c2ccccn2)S1 25.1 µM [inhibitor, partial curve], COc1ccc2c(c1)c(CC(=O)NCc1cc([N+](=O)[O-])ccc1O)c(C)n2C(=O)c1ccc(Cl)cc1 44.7 µM [inhibitor, partial curve], CC12CCC(C(=O)N(CCCN3CCN(Cc4ccccc4)CC3)C1=O)C2(C)C (stereo not given) 79.4 µM [inhibitor, partial curve]

Potency, inactive:
Cn1c(-c2ccc(Br)o2)nc2ccccc21
